Experimental data: the supplement of paper PMC10986608
The other results are listed elsewhere or left out. Repeats are few or missing, and single values can be far off.

The molecules below were run on Candida albicans DPL-15 (assay: growth (OD600) after compound treatment (apparently relative to screen median) (relative growth (fraction; screen median 1.02)); DPL-15 is a caspofungin-resistant clinical isolate; higher = more fungal growth (less antifungal activity)). Conditions: 25 µM; RPMI 1640; 48 h; 30 °C.

With `COc1ccc(/C=C/[C@H]2c3ccccc3O[C@]3(c4ccc(OC)cc4)Oc4ccccc4C[C@H]23)cc1` as the molecule, how does the growth read?
Its growth is 1.03.

Which growth does the source give for `COC(=O)C1=C(C(=O)OC)[C@@H](c2cccs2)O[C@@H]1c1ccccc1` here?
The growth was 1.19.

For `CC1=C[C@H](COc2ccc(C(C)(C)C)cc2)O[C@]2(C1)C(=O)Nc1ccccc12`, which growth is on record?
Its growth is 0.944.

Which growth does the source give for `C=CC[C@@H]1[C@H]2[C@H]3c4ccccc4[C@]([C@@H](C)OC)(c4ccccc43)[C@H]2C(=O)N1C(=O)OC(C)(C)C` here?
Its growth is 1.03.

How did the growth turn out when `O=c1c(O)c(-c2ccccc2OCc2ccccc2Br)oc2ccccc12` was run?
Its growth is 0.975.

For `O=C(Cc1cc(O)cc(O)c1C(=O)N1Cc2ccccc2C1)C1CC1`, which growth is on record?
Its growth is 0.988.

With `CCn1cc(Nc2cc(O)cc(O)c2C(=O)N2Cc3ccccc3C2)cn1` as the molecule, how does the growth read?
The growth was 1.22.

`COc1cc(OC)c2c(=O)c3ccc(OC)c(OCC=C(C)C)c3oc2c1` was tested. Which growth did it give?
Its growth is 1.03.

How did the growth turn out when `COC(=O)C1=C(C)N(Cc2cccc(Cl)c2)C(=S)NC1c1cccc(Br)c1` (stereo not drawn) was run?
The growth was 0.955.

For `COc1cccc([C@H]2NC(=O)CCC[C@@H](C)[C@@H](c3cccc(OC)c3)NC(=O)CCC[C@H]2C)c1`, which growth is on record?
The growth was 1.11.

Which growth does the source give for `C#CCOC(C[NH3+])CNC(=O)CC1(CNC(=O)c2cccc(/C=N/NS(=O)(=O)c3ccc(C)cc3)c2)CCCCC1` (stereo not drawn) here?
The growth was 1.03.

`COc1ccc(N2C(=O)C3=C(C(c4ccccc4)=NCCN3C)C2c2ccc(Br)cc2)cc1` (stereo not drawn) was tested. Which growth did it give?
The growth was 0.962.

`C=CC[C@]12C[C@@]3(O[C@H](C(CC)CC)N=C3C[C@H](c3ccc(OC)cc3)[C@H]1C)N(Cc1ccco1)C2=O` was tested. Which growth did it give?
Its growth is 0.951.

For `CCc1cccc(C)c1NS(=O)(=O)c1c(C(=O)N2CCCC2)c(C)n(C)c1C`, which growth is on record?
Its growth is 0.869.

With `CC#CCN1C(=O)N(C(C)=O)C(c2ccccc2)C(C(=O)OC)=C1C` (stereo not drawn) as the molecule, how does the growth read?
Its growth is 1.09.

For `Cc1cc2c(c(=O)o1)[C@@]1(C(=O)N(c3ccccc3)c3ccccc31)C1=C(CCCC1=O)O2`, which growth is on record?
The growth was 0.939.

Which growth does the source give for `CC(C)CC1=NCCNC2=C1C(c1ccc3c(c1)OCO3)N(Cc1ccccc1)C2=O` (stereo not drawn) here?
The growth was 1.05.

With `COc1ccc2c(c1)[C@]1(C(=O)N2C)C2=C(CCCC2=O)Oc2cc(C)oc(=O)c21` as the molecule, how does the growth read?
Its growth is 0.995.

For `Cc1ccc(C)c(OCCCC(C)(C)COS(=O)(=O)NC(C)(C)C)c1`, which growth is on record?
The growth was 1.1.

Which growth does the source give for `Cn1nc2c(c1-c1ccccc1)C(c1ccc(F)cc1)N(c1ccccc1)C2=O` (stereo not drawn) here?
Its growth is 0.946.

Which growth does the source give for `CC(C)CCc1cc(OCC(=O)NS(=O)(=O)OCCOCc2ccccc2)cc2oc3ccccc3c(=O)c12` here?
Its growth is 0.931.

Which growth does the source give for `COc1ccc([C@H]2[C@H](C(=O)NCc3ccccc3)[C@@H](C(=O)NCc3ccccc3)[C@@H]2c2ccc(OC)c(OC)c2)cc1OC` here?
The growth was 1.05.

Which growth does the source give for `C/C=C(\C)C1=C2CCCCOC2CCCN1S(=O)(=O)c1ccc(C)cc1` (stereo not drawn) here?
The growth was 1.07.

Which growth does the source give for `CC(=O)C1=C(C)NC(=O)NC1c1cccc(C)c1` (stereo not drawn) here?
The growth was 1.09.

`COc1ccccc1Cn1nc2c(c1-c1ccccc1)C(c1ccccc1)NC2=O` (stereo not drawn) was tested. Which growth did it give?
The growth was 0.948.

For `CC1=Cc2cc(O)ccc2[C@@H]2C=C(C)C(=O)[C@H]2C1`, which growth is on record?
The growth was 1.36.

`COc1ccc(Cn2ncc(C)c2Nc2cc(O)cc(O)c2C(=O)N2Cc3ccccc3C2)cc1` was tested. Which growth did it give?
Its growth is 1.12.

How did the growth turn out when `CN(C)S(=O)(=O)Nc1ccc(C(C)(C)C)cc1` was run?
The growth was 1.06.

How did the growth turn out when `COc1ccc(N2C(=O)c3[nH]nc(CC(C)(C)C)c3C2c2ccc(F)cc2)cc1` (stereo not drawn) was run?
The growth was 1.04.

Which growth does the source give for `C=CCC(Nc1ccc(OC)cc1)C1CCCCC1` (stereo not drawn) here?
The growth was 0.918.

With `CC(=O)OC[C@H]1O[C@H](c2ccc(C)cc2)C=C[C@H]1OC(C)=O` as the molecule, how does the growth read?
The growth was 0.907.

For `O=C1N[C@@H](c2ccccc2)COCc2cn[nH]c2-c2ccccc2-c2cccc(c2)C(=O)N2C[C@H](O)C[C@@H]12`, which growth is on record?
Its growth is 1.15.

`COc1ccc(N2C(=O)c3[nH]nc(-c4ccccc4)c3C2c2cccc(C(F)(F)F)c2)cc1` (stereo not drawn) was tested. Which growth did it give?
Its growth is 0.931.

For `CC(=O)C1=C(C)N(Cc2ccc(F)cc2)C(=S)NC1c1ccccc1Br` (stereo not drawn), which growth is on record?
Its growth is 1.

How did the growth turn out when `c1ccc2[nH]c(Cc3c[nH]c4ccccc34)cc2c1` was run?
The growth was 0.722.

With `COc1ccc(C(=O)O)c(Oc2cccc(OC)c2OCc2ccccc2)c1` as the molecule, how does the growth read?
The growth was 1.08.

Which growth does the source give for `COC(=O)c1ccc(C2c3c(CC(C)C)n[nH]c3C(=O)N2c2ccc(OC)cc2)cc1` (stereo not drawn) here?
Its growth is 1.03.

`Cc1ccc(S(=O)(=O)OC[C@H]2O[C@H](C#Cc3ccc(C(C)(C)C)cc3)C=C[C@H]2O)cc1` was tested. Which growth did it give?
The growth was 0.956.

How did the growth turn out when `CCN(CC)CCCNC1=NC(c2ccccc2)C(C(=O)OC)=C(C)N1Cc1ccc(C(F)(F)F)cc1` (stereo not drawn) was run?
Its growth is 1.11.

How did the growth turn out when `Cc1ccc(C2NC(=O)C3=C2C(CC(C)C)=NCCN3C)cc1` (stereo not drawn) was run?
The growth was 1.07.

How did the growth turn out when `COC(=O)[C@]1([C@H]2CCC(=O)O2)CC(=O)c2c(ccc(Cl)c2O)O1` was run?
The growth was 0.928.

How did the growth turn out when `CCC(C)c1n[nH]c2c1C(c1ccc(F)cc1)N(c1ccc(OC)cc1)C2=O` (stereo not drawn) was run?
The growth was 1.02.

How did the growth turn out when `O=C1CCCC2=C1[C@@]1(O[C@H]3C=CC=CN23)C(=O)N(c2ccccc2)c2ccccc21` was run?
Its growth is 1.11.

`CC(=O)c1cc(Br)c(O)cc1O` was tested. Which growth did it give?
Its growth is 1.1.

For `C[C@]12Cc3ccccc3[C@H]1CC1=N[C@@H](C3CCCCC3)O[C@@]13C[C@@H]2C(=O)N3C1CCN(Cc2ccccc2)CC1`, which growth is on record?
Its growth is 0.838.

`COc1ccc([C@@]23Oc4cc(OC)cc(OC)c4[C@]2(O)C(=O)[C@H](C(=O)Nc2ccccn2)[C@H]3c2ccccc2)cc1` was tested. Which growth did it give?
Its growth is 0.955.

Which growth does the source give for `COc1ccc(N2C(=O)c3[nH]nc(CC(C)C)c3C2c2ccc(C)cc2)cc1` (stereo not drawn) here?
Its growth is 1.01.

For `CC1=C[C@@H](COc2ccc(Br)cc2)O[C@@]2(C1)C(=O)Nc1ccccc12`, which growth is on record?
The growth was 0.955.

Which growth does the source give for `CC#CCCN1C(=O)N(C(C)=O)C(c2ccccc2)C(C(=O)OC)=C1C` (stereo not drawn) here?
The growth was 1.01.

`C=C(C)CC[C@@]12CCC(C)(C)[C@@](C(=O)c3ccccc3)(C(=O)C=C1OC)C2=O` was tested. Which growth did it give?
Its growth is 0.97.

Which growth does the source give for `CCOC(=O)C1C=CC=C(OC)C=C1` (stereo not drawn) here?
Its growth is 1.21.

Which growth does the source give for `CC(C)CC1=NCCN(C)C2=C1C(c1ccccc1)N(c1ccccc1)C2=O` (stereo not drawn) here?
The growth was 0.977.

How did the growth turn out when `C#CCN1C(=O)NC(c2ccccc2)C(C(=O)OC)=C1C` (stereo not drawn) was run?
The growth was 1.01.

With `CC(=O)C1=C2C=CCCN2C(=O)NC1c1ccc(C(F)(F)F)cc1` (stereo not drawn) as the molecule, how does the growth read?
The growth was 0.973.

Which growth does the source give for `COc1ccc(-c2c(O)c(=O)c3c(F)cccc3n2C)cc1` here?
The growth was 0.731.

For `CC(C)CC1=NCCN(C)C2=C1C(c1cccc(C(F)(F)F)c1)N(Cc1ccccc1)C2=O` (stereo not drawn), which growth is on record?
Its growth is 0.99.

With `C=CC[C@]12C[C@@]3(O[C@H](C4CCCCC4)N=C3C[C@H](c3ccc(OC)cc3)[C@H]1C)N(Cc1cccnc1)C2=O` as the molecule, how does the growth read?
The growth was 0.812.

Which growth does the source give for `COC(=O)C1=C(C)N(CCc2cccs2)C(NCC2CCCCC2)=NC1c1ccccc1` (stereo not drawn) here?
The growth was 1.17.

For `COc1cccc2c1C(=O)C[C@](COC(C)=O)(C1C=CC(=O)O1)O2` (stereo partly drawn), which growth is on record?
The growth was 1.28.

How did the growth turn out when `Cc1ccc2c(=O)c3cccc(CC(=O)[O-])c3oc2c1C` was run?
Its growth is 1.13.

How did the growth turn out when `CCN1C(NCCOC)=NC(c2ccc(Cl)cc2)C(C(=O)OC)=C1C` (stereo not drawn) was run?
The growth was 1.14.

How did the growth turn out when `COc1cc2c(c(OC)c1OC)C1(CCCCC1)CC2NC(=O)C(F)(F)F` (stereo not drawn) was run?
Its growth is 1.17.

Which growth does the source give for `COC(=O)[C@H]1[C@H](C(=O)OC)[C@@H](c2ccc(O)c(OC)c2)[C@@H]1c1ccc(O)c(OC)c1` here?
The growth was 1.05.

`COC(=O)c1c(C)c(C)c(O)c(C)c1O` was tested. Which growth did it give?
The growth was 1.24.

Which growth does the source give for `C=CC[C@H]1C[C@]23C[C@H](CC=C)C(C)(C)[C@](CC=C)(C(=O)C(C(=O)c4ccccc4)=C2OC1(C)C)C3=O` here?
The growth was 1.

`COC(=O)COc1ccccc1[N+](=O)[O-]` was tested. Which growth did it give?
Its growth is 1.11.

`C=CCCCN1C(=O)NC(c2ccccc2)C(C(=O)OC)=C1C` (stereo not drawn) was tested. Which growth did it give?
Its growth is 1.05.

`COC(=O)C1=C(C)[C@]2(C)C[C@H]3[C@@]4(C)CC[C@H](O)C(C)(C)[C@@H]4CC[C@@]3(C)[C@](C)(C1=O)C2=O` was tested. Which growth did it give?
Its growth is 0.865.

Which growth does the source give for `COC(=O)C(=Cc1cc(Br)c(OC)c(Br)c1)C(=O)OC` here?
The growth was 0.708.

For `COc1cc(O)c(C(=O)[C@@H]2CC=C(CCC=C(C)C)C[C@H]2c2ccccc2)c(OC)c1`, which growth is on record?
The growth was 0.954.

`COc1cccc(C(=O)O)c1Nc1ccccc1C(=O)O` was tested. Which growth did it give?
Its growth is 1.1.

`CC(C)(C)c1ccc(C#C[C@@H]2C=C[C@@H](O)[C@@H](CO)O2)cc1` was tested. Which growth did it give?
The growth was 1.01.

How did the growth turn out when `COC(=O)C/C=C/[C@@H](C)[C@H](OC)c1ccccc1Br` was run?
The growth was 0.997.

Which growth does the source give for `COc1ccc([C@@]23Oc4cc(OC)cc(OC)c4[C@]2(O)c2nc(C4CCCCC4)[nH]c(=O)c2[C@H]3c2ccccc2)cc1` here?
Its growth is 1.12.

`COc1ccc(N2C(=O)c3[nH]nc(CC(C)C)c3C2c2ccncc2Cl)cc1` (stereo not drawn) was tested. Which growth did it give?
Its growth is 1.09.

With `COc1ccc2oc3ccccc3c(=O)c2c1` as the molecule, how does the growth read?
Its growth is 1.09.

With `COC(=O)C1=C(C)N(Cc2cccc(C(F)(F)F)c2)C(NCCN2CCOCC2)=NC1c1ccc(Cl)cc1` (stereo not drawn) as the molecule, how does the growth read?
Its growth is 0.881.

For `CC1(C)/C=C\C=C\c2cccc(n2)C(=O)NCC2(CCCCC2)CC(=O)NC1`, which growth is on record?
The growth was 1.14.

Which growth does the source give for `COc1ccc(CCCc2ccccc2)cn1` here?
Its growth is 1.05.

How did the growth turn out when `CC(C)CCOS(=O)(=O)Nc1ccc(C(F)(F)F)cc1` was run?
The growth was 0.959.

How did the growth turn out when `CC(C)CC1=NCC(C)(C)NC2=C1C(c1ccccc1)N(c1ccccc1)C2=O` (stereo not drawn) was run?
Its growth is 1.02.

With `COC(=O)c1c(O)c(C=O)c(O)c(C=O)c1O` as the molecule, how does the growth read?
Its growth is 0.955.

How did the growth turn out when `C=CC[C@@H]1C=C(C(=O)OC)N(C(=O)C(F)(F)F)[C@@H](c2ccccc2Br)[C@@H]1C` was run?
The growth was 1.07.
